Laboratory results as given in the supplement of paper PMC4604168 (melanoma cell lines).
The list shows a part of the results. Single values are uncertain, as repeats are few or missing.

What was measured:
Assay in all cases: cell count relative to DMSO control; melanoma cells; higher = more viable cells
Conditions in all cases: library dose: low library concentration; 72 h
MZ2-MEL = system: MZ2-MEL
MeWo = system: MeWo
RPMI7951 = system: RPMI7951
RVH-421 = system: RVH-421
SkMel28 = system: SkMel28
SkMel2 = system: SkMel2
SkMel30 = system: SkMel30
SkMel5 = system: SkMel5
UACC257 = system: UACC257
UACC62 = system: UACC62
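Further: cell number obtained by counting DAPI-stained nuclei in high-throughput microscope images with image analysis software, screen run in 1,536-well plates.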

Row | SMILES | cell count (MZ2-MEL) | cell count (MeWo) | cell count (RPMI7951) | cell count (RVH-421) | cell count (SkMel28) | cell count (SkMel2) | cell count (SkMel30) | cell count (SkMel5) | cell count (UACC257) | cell count (UACC62)
1 | CN(c1ncccc1CNc1nc(Nc2ccc3c(c2)CC(=O)N3)ncc1C(F)(F)F)S(C)(=O)=O + Oc1cc(-c2nc(-c3ccccc3)[nH]c2-c2ccncc2)ccc1Cl [L779450] (first compound 0.08 µM, partner dose 0.2 µM) | 67.8% | 80.2% | 70.6% | 104% | 76.9% | 66.8% | 109% | 80.8% | 50.9% | 73.2%
2 | C=C(c1ccc(C(=O)O)cc1)c1cc2c(cc1C)C(C)(C)CCC2(C)C [Bexarotene] + O=c1cc(-c2cccc3c2Sc2ccccc2S3)oc(N2CCOCC2)c1 [KU55933] (first compound 2 µM, partner dose 1 µM) | 109% | 95.4% | 88.6% | 112% | 78.2% | 97% | 105% | 83.4% | 117% | 88.8%
3 | CCCS(=O)(=O)Nc1ccc(F)c(C(=O)c2c[nH]c3ncc(Cl)cc23)c1F + O=C(Nc1ccccc1)c1cc([N+](=O)[O-])ccc1Cl [GW9662] (first compound 0.08 µM, partner dose 2 µM) | 87.8% | 107% | 104% | 101% | 79.8% | 98.3% | 96.9% | 103% | 116% | 55.1%
4 | CCCS(=O)(=O)Nc1ccc(F)c(C(=O)c2c[nH]c3ncc(Cl)cc23)c1F + c1cc(-c2cnn3cc(-c4ccc(OCCN5CCCCC5)cc4)cnc23)ccn1 [Dorsomorphin] (first compound 0.08 µM, partner dose 0.4 µM) | 82.3% | 107% | 123% | 92.5% | 89.1% | 102% | 94.1% | 108% | 88.1% | 68.6%
5 | CCCS(=O)(=O)Nc1ccc(F)c(C(=O)c2c[nH]c3ncc(Cl)cc23)c1F + COc1ccc(-c2ccc3c(N4CCOCC4)nc(N4C[C@@H](C)O[C@@H](C)C4)nc3n2)cc1CO [KU0063794] (first compound 0.08 µM, partner dose 0.02 µM) | 84% | 101% | 111% | 83.8% | 65% | 84% | 92.9% | 112% | 64% | 65.6%
6 | C=C(c1ccc(C(=O)O)cc1)c1cc2c(cc1C)C(C)(C)CCC2(C)C [Bexarotene] + O=C1NC(=O)/C(=C/c2ccc(-c3ccc(F)cc3O)o2)S1 [AS252424] (first compound 2 µM, partner dose 1 µM) | 90.1% | 94.1% | 81.5% | 91.4% | 76.6% | 82.6% | 108% | 91.6% | 93.9% | 98.8%
7 | CN(c1ncccc1CNc1nc(Nc2ccc3c(c2)CC(=O)N3)ncc1C(F)(F)F)S(C)(=O)=O + CCN(CC)CCCCNc1ncc2cc(-c3cc(OC)cc(OC)c3)c(NC(=O)NC(C)(C)C)nc2n1 [PD173074] (first compound 0.08 µM, partner dose 0.1 µM) | 89.7% | 103% | 66.8% | 94.8% | 90.5% | 86% | 96.7% | 72.4% | 69.2% | 74.9%
8 | CN(c1ncccc1CNc1nc(Nc2ccc3c(c2)CC(=O)N3)ncc1C(F)(F)F)S(C)(=O)=O + C[C@@H]1CCN(C(=O)CC#N)C[C@@H]1N(C)c1ncnc2[nH]ccc12 [CP690550] (first compound 0.08 µM, partner dose 1 µM) | 95.2% | 99.4% | 75.9% | 102% | 108% | 99% | 93.8% | 83.1% | 86.6% | 89.2%
9 | NC1(c2ccc(-c3nc4ccn5c(=O)[nH]nc5c4cc3-c3ccccc3)cc2)CCC1 + O=C1NC(=O)/C(=C/c2ccc(-c3ccc(F)cc3O)o2)S1 [AS252424] (first compound 0.4 µM, partner dose 1 µM) | 96% | 85.7% | 84.8% | 76.4% | 69.9% | 82.9% | 75.3% | 110% | 67% | 70%
10 | CS(=O)(=O)c1ccc(C(=O)Nc2ccc(Cl)c(-c3ccccn3)c2)c(Cl)c1 [vismodegib] + Cn1cc(/C=C2\C(=O)Nc3cccnc32)c2ccccc21 [GW441756] (first compound 1 µM, partner dose 0.4 µM) | 99.3% | 84.7% | 101% | 131% | 99.9% | 110% | 82.4% | 78.9% | 83.6% | 101%
11 | CN(c1ncccc1CNc1nc(Nc2ccc3c(c2)CC(=O)N3)ncc1C(F)(F)F)S(C)(=O)=O + Oc1nc(-c2ccc(C(F)(F)F)cc2)nc2c1CSCC2 [XAV939] (first compound 0.08 µM, partner dose 2 µM) | 97.5% | 96.7% | 69.2% | 137% | 116% | 90.7% | 104% | 71.3% | 100% | 90.6%
12 | CCCS(=O)(=O)Nc1ccc(F)c(C(=O)c2c[nH]c3ncc(Cl)cc23)c1F + C[C@@H]1CCN(C(=O)CC#N)C[C@@H]1N(C)c1ncnc2[nH]ccc12 [CP690550] (first compound 0.08 µM, partner dose 1 µM) | 88.3% | 90.6% | 116% | 99.5% | 76.3% | 90.4% | 89.5% | 106% | 103% | 62.5%
13 | CN(c1ncccc1CNc1nc(Nc2ccc3c(c2)CC(=O)N3)ncc1C(F)(F)F)S(C)(=O)=O + NCC(=O)Nc1ccc(-n2nc(C(F)(F)F)cc2-c2ccc3c(ccc4ccccc43)c2)cc1 [OSU03012] (first compound 0.08 µM, partner dose 1 µM) | 82.7% | 59.7% | 68.6% | 103% | 60.2% | 80.3% | 61.1% | 82% | 78.8% | 90.7%
14 | NC1(c2ccc(-c3nc4ccn5c(=O)[nH]nc5c4cc3-c3ccccc3)cc2)CCC1 + COc1ccc2c(c1)CCC1C2CCC2(C)C(NCCCCCCN3C(=O)C=CC3=O)CCC12 [U73122] (first compound 0.4 µM, partner dose 0.4 µM) | 103% | 80.7% | 75.3% | 107% | 80.4% | 83.7% | 76.8% | 92.4% | 72.2% | 83.2%
15 | C=C(c1ccc(C(=O)O)cc1)c1cc2c(cc1C)C(C)(C)CCC2(C)C [Bexarotene] + COc1cc2ncnc(Nc3ccc(Oc4ccccc4)cc3)c2cc1OC [SrcI1] (first compound 2 µM, partner dose 2 µM) | 93.4% | 89.2% | 103% | 116% | 69.7% | 92.5% | 107% | 85.4% | 114% | 90.2%
16 | CCCS(=O)(=O)Nc1ccc(F)c(C(=O)c2c[nH]c3ncc(Cl)cc23)c1F + Cc1ccc(NC(=O)c2cccc(N(C)C)c2)cc1NC(=O)c1ccc(O)cc1 [ZM336372] (first compound 0.08 µM, partner dose 2 µM) | 82.8% | 104% | 89.8% | 71.7% | 80% | 103% | 86.2% | 102% | 58.6% | 63.1%
17 | C=C(c1ccc(C(=O)O)cc1)c1cc2c(cc1C)C(C)(C)CCC2(C)C [Bexarotene] + O=C(Nc1cccc(Cl)c1)Nc1ncc(CCNc2ncnc3ccsc23)s1 [SNS314] (first compound 2 µM, partner dose 0.0008 µM) | 105% | 88.3% | 78% | 107% | 67% | 95.8% | 110% | 86.3% | 93.1% | 83.8%
18 | CS(=O)(=O)c1ccc(C(=O)Nc2ccc(Cl)c(-c3ccccn3)c2)c(Cl)c1 [vismodegib] + CCCCCCCCCCCC1=C(O)C(=O)C=C(O)C1=O [Embelin] (first compound 1 µM, partner dose 1.2 µM) | 99.4% | 100% | 92.6% | 121% | 103% | 113% | 111% | 106% | 86.9% | 90.6%
19 | CN(c1ncccc1CNc1nc(Nc2ccc3c(c2)CC(=O)N3)ncc1C(F)(F)F)S(C)(=O)=O + CC(C)CCN1c2nc(Nc3cc(F)c(O)c(F)c3)ncc2N(C)C(=O)C1C [BID1870] (first compound 0.08 µM, partner dose 0.2 µM) | 95.2% | 103% | 84.9% | 87.7% | 87.3% | 78.5% | 83.4% | 84.7% | 70.4% | 86.3%
20 | C=C(c1ccc(C(=O)O)cc1)c1cc2c(cc1C)C(C)(C)CCC2(C)C [Bexarotene] + COC(=O)c1sccc1S(=O)(=O)Nc1ccc(Nc2ccccc2)cc1OC [GSK0660] (first compound 2 µM, partner dose 1 µM) | 87.7% | 101% | 76.8% | 110% | 78.7% | 88% | 85.5% | 86.7% | 91.1% | 83%
21 | NC1(c2ccc(-c3nc4ccn5c(=O)[nH]nc5c4cc3-c3ccccc3)cc2)CCC1 + O=C(O)c1ccc(-c2c[nH]c3ncc(-c4ccccc4)cc23)cc1C1CCCC1 [GSK650394] (first compound 0.4 µM, partner dose 0.16 µM) | 93.2% | 76.4% | 113% | 83.1% | 63% | 89.5% | 105% | 102% | 88.8% | 82%
22 | CN(c1ncccc1CNc1nc(Nc2ccc3c(c2)CC(=O)N3)ncc1C(F)(F)F)S(C)(=O)=O + COc1cc(N2CCC(N3CCN(C)CC3)CC2)ccc1Nc1ncc(Cl)c(Nc2ccccc2S(=O)(=O)C(C)C)n1 [NVP-TAE684] (first compound 0.08 µM, partner dose 0.08 µM) | 104% | 97.4% | 76.2% | 84.8% | 72.1% | 90.9% | 82.6% | 82.5% | 76.5% | 128%
